This passage reports binding results from publication PMC5106031.

Amino acid sequences for entries named in this document (tags omitted). Residues count along the entry.
UniProt P56817, residues 46-501: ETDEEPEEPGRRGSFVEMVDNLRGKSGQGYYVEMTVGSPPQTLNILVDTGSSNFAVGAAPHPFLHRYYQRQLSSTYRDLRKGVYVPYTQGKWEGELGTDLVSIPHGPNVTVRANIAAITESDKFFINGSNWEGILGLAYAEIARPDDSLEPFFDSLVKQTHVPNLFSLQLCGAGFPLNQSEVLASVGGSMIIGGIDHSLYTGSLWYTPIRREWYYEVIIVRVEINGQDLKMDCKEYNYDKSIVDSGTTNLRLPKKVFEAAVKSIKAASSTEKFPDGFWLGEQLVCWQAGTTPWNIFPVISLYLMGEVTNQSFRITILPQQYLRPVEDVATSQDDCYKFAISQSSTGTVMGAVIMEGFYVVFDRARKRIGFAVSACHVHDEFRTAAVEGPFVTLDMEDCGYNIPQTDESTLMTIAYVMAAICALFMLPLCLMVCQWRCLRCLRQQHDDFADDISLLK

One test deals with A2AR-CFP (UniProt P29274). Description: FRET or BRET; acceptor photobleaching FRET in transfected HEK293 cells fixed with 4% PFA; CFP donor, YFP acceptor; confocal microscope; in Fig 5 cells treated with Istradefylline (30 nM, 0-60 min; or 10-100 nM, 30 min) or CGS 21680 HCl. For orientation: Bioluminescence resonance energy transfer reports proximity on the nanometre scale.
In test [1] the target is Flag-tagged A2AR (adenosine A2A receptor) (UniProt P29274). Description: co-IP; HEK293T cells over-expressing BACE1 without or with Flag-A2AR (Fig 4F, lanes 5 and 6); anti-Flag M2 resin; detergent of these lanes not told (1% CHAPSO or 1% Triton X-100).
Test [2] shares this target. Description: co-IP; HEK293T cells over-expressing PS1, NCT, APH1aL and Pen2 without or with Flag-A2AR; lysed in IP buffer (50 mM HEPES pH 7.4, 150 mM NaCl, 10% glycerol) with 1% CHAPSO; anti-Flag M2 resin, 4°C, 4 h; Western blot. A general note: A western blot detects proteins with antibodies after separation by electrophoresis.
Test [3] shares this target. Description: co-IP; HEK293T cells transfected with Flag-A2AR and the partner; lysed in IP buffer (50 mM HEPES pH 7.4, 150 mM NaCl, 10% glycerol) with 1% Triton X-100, which dissociates the γ-secretase complex; anti-Flag M2 resin, 4°C, 4 h; Western blot; in Fig 5E cells without or with 30 nM Istradefylline.

Results are given in words; binding and its absence hold for the method and conditions named. In cells and extracts the contact can be indirect. Some results given as binding are weak or reduced against the parent protein; the word gives no strength.

With APH1aL-YFP (from UniProt Q96BI3 1-265), the binding result with A2AR-CFP is reported as “binds”.
In the case of “BACE1 (from UniProt P56817 46-501) (enzyme)”, in test [1], the binding entry is “no binding”.
As to “BACE1-YFP (from UniProt P56817 46-501) (enzyme)”, in the test with A2AR-CFP, the binding entry is “no binding”.
Turning to “nicastrin (NCT) (from UniProt Q92542 34-709)”, the binding entry in test [2] and in test [3] was “binds” throughout.
Regarding “HA-C99 (C99 fragment of APP, HA-tagged) (from UniProt P05067 672-770) (domain or fragment)”, the binding entry in test [3] is on record as “binds weakly”.
With “APH1aL (anterior pharynx defective 1a, long form) (from UniProt Q96BI3 1-265)”, the binding entry in test [2] and in test [3] was “binds” in each case.
